Like-named read-outs stand apart in the source and are kept apart here. Some results are limits rather than exact numbers.

The subject of assay [1] is rabbit eyes. Description: Rabbit tear secretion by Schirmer test, nucleotides and diadenosine polyphosphates. The format is in vivo, New Zealand white rabbit. The conditions noted are these: for EC50: Oryctolagus cuniculus; for maximal effect on tear secretion: concentration-effect curves, percent of saline control, FIG. 4; for tear secretion (Schirmer score) as percent saline control: single dose 10 μg/μl, 10 μl, strip 5 min, mean ± S.E.M. The procedure: Tear secretion was measured according to the Schirmer test. Briefly, 10 μl of the test compound at the indicated concentrations were instilled via pipette in the eye. […] Control experiments were performed by applying 10 μl of saline solution (NaCl 0.9%). Tear secretion was measured as the length (mm) of the strip wetted by the tears.
Single-dose experiments were carried out by applying 10 μl of the corresponding nucleotide or dinucleotide at a concentration of 10 μg/μl. Dose-response analysis was performed by instilling doses ranging from 10^−10 to 10^−4 g/μl, always in a volume of 10 μl. Concentration-response curves were done by applying different doses in a non-cumulative fashion in one of the rabbit eyes, with the contralateral eye receiving the same volume of saline solution (control). Transformation of g/μl units into molar concentrations was performed by factoring in the corresponding molecular weight of each dinucleotide for each data point. The values presented are the means ±S.E.M. of 8 to 12 experiments performed in 36 different animals. Statistical significance between treated and non-treated animals was estimated by the Student's t-test.
In order to determine whether or not mononucleotides were able to modify rabbit tear secretion, single doses of ATP, UTP, ADP and UDP were instilled via pipette at 10 μg/μl (final volume 10 μl). […] Control experiments were performed by applying 10 μl of saline solution (NaCl 0.9%). Tear secretion was measured as the length (mm) of the strip wetted by the tears and values were expressed as percent saline control (***P<0.001; **P<0.05) compared to saline solution (Student's t-test).

The target in assay [2] is human P2Y1 receptor (Homo sapiens, UniProt P47900). Description: Intracellular Ca2+ mobilization (FLIPR) in 1321N1 cells expressing P2Y1. It is filed as cell-based. As to the method:
Average Fluorescence Units (AFU) corresponding to peak height were captured on disk and exported for further analysis. Changes in fluorescence data corresponding to concentrations of intracellular Ca^2+ were normalized to the response of the cognate agonists (2MeSADP for P2Y1 receptor, ATP for P2Y2 receptor, UTP for P2Y4 receptor, UDP for P2Y6 receptor, and ATP for P2Y11 receptor).
(§1) Agonist potencies were calculated using a four-parameter logistic equation and the GraphPad software package (San Diego, Calif.). […] Three experiments using triplicate assays were conducted on separate days for each P2Y receptor subtype.

Assay [3] deals with human P2Y2 receptor (Homo sapiens, UniProt P41231). Description: Intracellular Ca2+ mobilization (FLIPR) in 1321N1 cells expressing P2Y2. The format is cell-based. As to the method: For intracellular Ca^2+ measurements, cells were seeded in 96-well black wall/clear bottom culture plates (#3904 Corning Inc., Corning, N.Y.), at a density of 35,000 cells per well and assays conducted 2 days later when the cells had reached confluence.
UniProt P41231, sequence (P41231 whole entry): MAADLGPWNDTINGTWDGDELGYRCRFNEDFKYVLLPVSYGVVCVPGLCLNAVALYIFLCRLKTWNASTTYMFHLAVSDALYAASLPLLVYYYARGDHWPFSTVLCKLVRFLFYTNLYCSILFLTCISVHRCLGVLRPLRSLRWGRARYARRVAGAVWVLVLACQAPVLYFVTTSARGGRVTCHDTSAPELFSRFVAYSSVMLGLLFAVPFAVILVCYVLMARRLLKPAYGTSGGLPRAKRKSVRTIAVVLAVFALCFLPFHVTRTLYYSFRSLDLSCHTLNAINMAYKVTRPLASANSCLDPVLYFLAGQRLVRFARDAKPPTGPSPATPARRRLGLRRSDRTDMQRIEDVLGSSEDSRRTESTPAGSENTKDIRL
On the day of the assay, the growth medium in the culture plates was aspirated and replaced with 2.5 μM Fluo-3-AM in a final volume of 50 μl and incubated for one hour at 25° C. Then, the dye was replaced with assay buffer (10 mM KCl, 118 mM NaCl, 2.5 mM CaCl2, 1 mM MgCl2, 10 mM glucose, and 20 mM HEPES, pH 7.4), using a Columbus Plate Washer, (Tecan Inc., Research Triangle Park, N.C.). Intracellular Ca^2+ levels in response to P2Y receptor agonists was monitored as changes in fluorescence intensity using a Fluorescent Light Imaging Plate Reader (FLIPR) (Pendergast et al., 2001) from Molecular Devices (Sunnyvale, Calif.). Average Fluorescence Units (AFU) corresponding to peak height were captured on disk and exported for further analysis. Changes in fluorescence data corresponding to concentrations of intracellular Ca^2+ were normalized to the response of the cognate agonists (2MeSADP for P2Y1 receptor, ATP for P2Y2 receptor, UTP for P2Y4 receptor, UDP for P2Y6 receptor, and ATP for P2Y11 receptor).
as §1

Assay [4] deals with avian P2Y1 receptor (Gallus gallus, UniProt P34996). Particulars: Pintor et al. 1996; cited from earlier work.
UniProt P34996, sequence (P34996 whole entry): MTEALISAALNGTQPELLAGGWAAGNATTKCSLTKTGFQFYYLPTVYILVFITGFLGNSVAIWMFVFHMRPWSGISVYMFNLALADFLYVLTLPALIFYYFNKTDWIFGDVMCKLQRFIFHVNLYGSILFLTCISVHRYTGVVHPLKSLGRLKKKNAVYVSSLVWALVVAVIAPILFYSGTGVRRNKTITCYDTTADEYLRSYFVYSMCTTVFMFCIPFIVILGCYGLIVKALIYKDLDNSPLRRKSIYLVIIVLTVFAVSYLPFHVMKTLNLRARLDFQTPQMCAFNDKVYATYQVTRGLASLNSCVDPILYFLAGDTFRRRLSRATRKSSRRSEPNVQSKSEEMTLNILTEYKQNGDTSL
Assay [5] concerns rabbit eyes. Description: Schirmer scores in rabbits after a single instillation. Particulars: for rank order of potency (highest to lowest): 10 minutes post-dosing; for rank order of potency: 30 minutes post-dosing; for Schirmer scores compared with saline or untreated controls: single 50 μL topical instillation of 50 mM solution. The format is in vivo, albino rabbit. As to the method:
This study was designed to investigate the effects of three synthetic P2Y2 receptor agonists, U2P4, dCp4U, and p-Br-phenyl-ethenoCp4U, on tear fluid secretion following a single instillation in albino rabbits.
Each of three cohorts of rabbits (10 animal/cohort) was given a single 50 μL instillation of isotonic and pH-neutral solution of 50 mM U2P4, dCp4U, and p-Br-phenyl-ethenoCp4U, in one eye per animal. The contralateral eye was untreated. A fourth control cohort was given isotonic saline in one eye and untreated in the contralateral eye. Tear secretion was measured using Schirmer strips placed into each eye for 15 seconds at baseline (3 hr before first instillation) and at 10 min, 0.5, 1, 2, and 3 hr post-instillation.

The mark [6] stands for this setting: concentration-effect curves 10^−10 to 10^−4 g/μl, n=8, read-out: pD2 for tear secretion (converted).
Setting [7] is: corresponding to the pD2 values, read-out: EC50 for tear secretion.
[8] abbreviates: 1321 astrocytoma cells, n=3, read-out: EC50 for intracellular calcium mobilization, P2Y1 receptor.
Where [9] appears, read: 1321 astrocytoma cells, n=3, read-out: pD2 for intracellular calcium mobilization, P2Y1 receptor (converted).
Setting [10] is: 1321 astrocytoma cells, n=3, read-out: EC50 for intracellular calcium mobilization, P2Y2 receptor.
Setting [11] is: mobilization of intracellular Ca2+.
The mark [12] stands for this setting: post-dosing, 50 mM single instillation.
The mark [13] stands for this setting: 1321 astrocytoma cells, n=3, read-out: pD2 for intracellular calcium mobilization, P2Y2 receptor (converted).

UniProt P47900, sequence (P47900 whole entry): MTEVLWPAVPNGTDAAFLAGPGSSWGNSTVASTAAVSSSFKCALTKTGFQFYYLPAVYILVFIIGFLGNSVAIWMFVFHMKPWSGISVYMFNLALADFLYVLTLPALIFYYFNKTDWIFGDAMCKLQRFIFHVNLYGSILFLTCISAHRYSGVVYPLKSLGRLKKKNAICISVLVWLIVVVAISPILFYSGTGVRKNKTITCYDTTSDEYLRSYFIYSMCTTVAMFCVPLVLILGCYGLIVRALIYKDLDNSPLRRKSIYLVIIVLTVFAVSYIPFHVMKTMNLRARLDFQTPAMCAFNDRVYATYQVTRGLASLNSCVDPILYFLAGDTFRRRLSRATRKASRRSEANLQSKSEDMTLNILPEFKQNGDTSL

Consider `Nc1ncnc2c1ncn2[C@@H]1O[C@H](COP(=O)(O)OP(=O)(O)OP(=O)(O)OP(=O)(O)OC[C@H]2O[C@@H](n3cnc4c(N)ncnc43)[C@H](O)[C@@H]2O)[C@@H](O)[C@H]1O` [Ap4A, P^1, P^4-di(adenosine 5′-)tetraphospate], for which the EC50 in assay [1] (setting [6]) is 2.75 µM; in assay [1] (setting [7]), 2.76 µM; in assay [2] (setting [8]), 0.16 µM; in assay [2] (setting [9]), 0.17 µM; in assay [3] (setting [10]) it was 0.093 µM. Besides, the “maximal effect on tear secretion” value in assay [1] is 162±2.4%. In addition, the “tear secretion (Schirmer score) as percent saline control” value in assay [1] is 162±3%. In addition, the “activation of P2Y2 receptor” value in assay [3] (setting [11]) is on record as “activated by Ap4A at a similar low concentration”. Moreover, the “EC50 values at avian P2Y1 receptor” value in assay [4] is listed as “nM range”.

On to `Nc1ccn([C@H]2C[C@H](O)[C@@H](COP(=O)(O)OP(=O)(O)OP(=O)(O)OP(=O)(O)OC[C@H]3O[C@@H](n4ccc(=O)[nH]c4=O)[C@H](O)[C@@H]3O)O2)c(=O)n1` [dCp4U, P^1-(deoxycytidine 5′-) P^4-(uridine 5′)-tetraphosphate], for which, in assay [5] (50 mM single instillation), the “rank order of potency (highest to lowest)” value is reported as “U2P4≈p-Br-Phenyl-ethenoCp4U>dCp4U” and the “rank order of potency” value is “dCp4U≈U2P4>p-Br-Phenyl-ethenoCp4U”. For the same compound, the “time by which tear secretion returned to pretreatment levels” value in assay [5] (setting [12]) is no more than 1 h. Besides, the “Schirmer scores compared with saline or untreated controls” value in assay [5] was “significantly increased Schrimer scores”.

For the compound `O=c1ccn([C@@H]2O[C@H](COP(=O)(O)OP(=O)(O)OP(=O)(O)O)[C@@H](O)[C@H]2O)c(=O)[nH]1` [UTP, uridine 5′-triphosphate], in assay [1], the “tear secretion (Schirmer score) as percent saline control” value was determined as 160±8%.

As to diadenosine triphosphate [Ap3A], the “change on tear secretion” value in assay [1] (even at the highest concentrations assayed, n=8) is “failed to produce any change on tear secretion”. For the same compound, the “tear secretion (Schirmer score) as percent saline control” value in assay [1] turned out to be 89±7%. Moreover, the “pD2 for intracellular calcium mobilization, P2Y1 receptor” value in assay [2] (1321 astrocytoma cells, n=3) came to 8.05. Further, the EC50 in assay [2] (setting [8]) was 0.009 µM; in assay [3] (setting [10]), 19.6 µM. The “activation of P2Y1 receptor” value in assay [2] (setting [11]) is recorded as “fully activated by submicromolar concentrations”. The “pD2 for intracellular calcium mobilization, P2Y2 receptor” value in assay [3] (1321 astrocytoma cells, n=3) came out at 4.70.

In the case of `Nc1ncnc2c1ncn2[C@@H]1O[C@H](COP(=O)(O)OP(=O)(O)O)[C@@H](O)[C@H]1O` [ADP, reference compound], in assay [1], the “tear secretion (Schirmer score) as percent saline control” value stood at 107±1%.

Turning to `Nc1ncnc2c1ncn2[C@@H]1O[C@H](COP(=O)(O)OP(=O)(O)OP(=O)(O)O)[C@@H](O)[C@H]1O` [ATP, adenosine 5′-triphosphate], the “tear secretion (Schirmer score) as percent saline control” value in assay [1] is 131±6%.

Turning to “P^1-(bromophenyletheneocytidine 5′-) P^4-(uridine 5′-)tetraphosphate [p-Br-phenyl-ethenoCp4U]”, in assay [5] (50 mM single instillation), the “rank order of potency (highest to lowest)” value is “U2P4≈p-Br-Phenyl-ethenoCp4U>dCp4U” and the “rank order of potency” value is “dCp4U≈U2P4>p-Br-Phenyl-ethenoCp4U”. Also, in assay [5] (1 hour post-treatment), the “Schirmer scores, difference among treatment groups” value is on record as “significantly higher Schirmer scores than dCp4U”. Also, the “time for which tear secretion remained slightly elevated” value in assay [5] (setting [12]) is listed as “up to 2 hours”. The “Schirmer scores compared with saline or untreated controls” value in assay [5] is listed as “significantly increased Schrimer scores”.

As to `O=c1ccn([C@@H]2O[C@H](COP(=O)(O)OP(=O)(O)O)[C@@H](O)[C@H]2O)c(=O)[nH]1` [UDP, reference compound], the “tear secretion (Schirmer score) as percent saline control” value in assay [1] was 105±2%.

On to `Nc1ncnc2c1ncn2C1OC(COP(=O)(O)OP(=O)(O)OP(=O)(O)OP(=O)(O)OP(=O)(O)OCC2OC(n3cnc4c(N)ncnc43)C(O)C2O)C(O)C1O` (stereo not drawn) [Ap5A, P^1, P^5di(adenosine-5′-)pentaphosphate], for which the EC50 was 1.78 µM in assay [1] (setting [6]); 1.77 µM in assay [1] (setting [7]); 1.66 µM in assay [2] (setting [8]); 1.7 µM in assay [2] (setting [9]); 2.64 µM in assay [3] (setting [10]); 2.69 µM in assay [3] (setting [13]). The “maximal effect on tear secretion” value in assay [1] came out at 125±7%. The “tear secretion (Schirmer score) as percent saline control” value in assay [1] worked out at 126±6%.

As to `Nc1ncnc2c1ncn2C1OC(COP(=O)(O)OP(=O)(O)OP(=O)(O)OP(=O)(O)OP(=O)(O)OP(=O)(O)OCC2OC(n3cnc4c(N)ncnc43)C(O)C2O)C(O)C1O` (stereo not drawn) [Ap6A, P^1, P^6-di(adenosine-5′-)hexaphosphate], the EC50 in assay [1] (setting [6]) was 3.16 µM; in assay [1] (setting [7]), 3.16 µM; in assay [2] (setting [8]) it was 1.77 µM; in assay [2] (setting [9]), 1.78 µM; in assay [3] (setting [10]), 5.18 µM; in assay [3] (setting [13]), 5.25 µM. In assay [1], the “maximal effect on tear secretion” value was 125±7%. The “tear secretion (Schirmer score) as percent saline control” value in assay [1] was 125±15%.
